# From PubChem BioAssay (NCATS)
# Several values for one entry are separate records, joined by “and”; a condition that tells them apart may be missing. Equal values may be shown once. Inconclusive means that the source gave no clear call. Such entries were picked first, then a sample of the others. For part of these data: Potencies of inconclusive entries are left out as doubtful fits. Activity calls are given as the source filed them. Calls come from the whole dose curve; as a rule, active = well fitted curve in the direction sought with a large enough effect; inconclusive = small, poorly fitted or top-dose-only effect, or another doubt; inactive = no such curve, though single readings can be large; an effect the other way counts as inactive or inconclusive.
# Key:
# [1] = molecular target: Cytochrome P450 3A7 (Homo sapiens) (UniProt P24462); experiment: Cytochrome P450 family 3 subfamily A member 7 (CYP3A7) small molecule antagonists: luciferase biochemical qHTS assay (AID 1963596); note: nearly all actives have a fitted effect of over 40% in size
# UniProt P24462, sequence (P24462 whole entry, looked up): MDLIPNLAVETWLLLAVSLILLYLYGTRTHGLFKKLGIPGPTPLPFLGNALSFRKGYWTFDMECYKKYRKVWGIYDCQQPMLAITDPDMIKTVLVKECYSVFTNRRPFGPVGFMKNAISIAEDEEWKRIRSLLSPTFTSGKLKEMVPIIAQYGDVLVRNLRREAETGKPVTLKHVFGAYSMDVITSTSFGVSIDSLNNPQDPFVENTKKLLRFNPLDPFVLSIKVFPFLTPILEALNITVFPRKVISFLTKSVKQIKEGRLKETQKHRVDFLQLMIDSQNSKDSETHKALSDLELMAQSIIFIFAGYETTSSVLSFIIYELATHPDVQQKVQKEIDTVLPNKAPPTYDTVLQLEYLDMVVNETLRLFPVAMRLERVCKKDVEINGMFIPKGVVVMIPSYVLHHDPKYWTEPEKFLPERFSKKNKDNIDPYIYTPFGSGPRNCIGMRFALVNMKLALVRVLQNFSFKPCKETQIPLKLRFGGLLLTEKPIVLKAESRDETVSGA
# Procedure, shortened: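 Luminescence from luciferin released by CYP3A7 from a proluciferin substrate, read 20 min after detection reagent. Compound and enzyme-substrate mix sat 10 min before NADPH regeneration solution; reaction ran 1 h at room temperature.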
# [2] = Viability qHTS for spleen associated tyrosine kinase inhibitor (SYKi) naive MV4-11 cells (AID 1963823); note: nearly all actives have a fitted effect of over 40% in size
# Procedure, shortened: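 SYK inhibitor-naive MV4-11 cells, 500 per well, exposed to compounds for 72 hr at 37 C, 5% CO2. Viability read as CellTiter-Glo luminescence after 10 min at room temperature.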
# [3] = Viability qHTS for spleen associated tyrosine kinase inhibitor (SYKi) drug resistant MV4-11 cells (AID 1963824); note: nearly all actives have a fitted effect of over 35% in size
# Procedure, shortened: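 CellTiter-Glo luminescence, read 10 min after reagent addition, reports viability after a 72 hr compound exposure. Cells are an MV4-11 line made resistant to SYK inhibition, seeded at 500 per well onto compound-containing plates.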
# [4] = Cellular viability qHTS for adrenocortical cancer (ACC) cell line NCI-H295R (AID 1963990); details: CellTiter-Glo ATP luminescence, 48 h; series mostly up to 46.1 µM; note: nearly all actives have a fitted effect of over 60% in size
# Procedure, shortened: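 IC50 and maximal efficacy derive from four-parameter logistic modelling of titration curves, with reads scaled between DMSO-only wells (0%) and doxorubicin hydrochloride (100% inhibition). Compounds spanned up to 46 uM over 48 h.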
# [5] = Quantitative highthroughput screen to assess conditional lethalithy of NOMO1 cells grown in RPMI1640 with dialyzed fetal bovine serum (RPMI+ds) (AID 1963877); note: nearly all actives have a fitted effect of over 30% in size
# Procedure, shortened: (§1)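 Each medium arm—HPLM with 10% dialyzed FBS, or RPMI1640 with 5 mM glucose and 10% untreated or dialyzed FBS—was screened against an 11-point, 3-fold compound titration for 48 h at 37 °C, with CellTiter-Glo luminescence as endpoint.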
# [6] = Quantitative highthroughput screen to assess conditional lethalithy of NOMO1 cells grown in Human Plasma-Like Medium with dialyzed fetal bovine serum (HPLM+ds) (AID 1963878); note: nearly all actives have a fitted effect of over 35% in size
# Procedure, shortened: as §1
# [7] = Quantitative highthroughput screen to assess conditional lethalithy of P12 Ichikawa cells grown in RPMI1640 with untreated serum (RPMI+s) (AID 1963881); details: Potency: viability; note: nearly all actives have a fitted effect of over 35% in size
# Procedure, shortened: as §1
# [8] = Cellular viability qHTS for adrenocortical cancer (ACC) cell line SW-13 (AID 1963989); details: SW-13 ACC cells viability, CellTiter-Glo, 48 h; activity (max response): hits give low values; note: nearly all actives have a fitted effect of over 65% in size
# Procedure, shortened: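 Luminescent ATP read-out (CellTiter-Glo, 20 min at room temperature) measured metabolically competent SW-13 cells after 48 h compound treatment. Final concentrations spanned up to 46 uM; bortezomib served as positive control.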
# Potency is the fitted concentration of half-maximal effect; tags give direction and shape of the fitted curve.
structure (smiles),measurement,setting,value
COC(=O)C(Cl)C(=O)OC,Potency,[1],inactive
same,Potency,[2],inactive
same,Potency,[3],inactive
OCCCCC#Cc1cncc(OC[C@@H]2CCN2)c1,Potency,[1],inactive
same,Potency,[2],"inconclusive [cytotoxic, single point]"
same,Potency,[3],inactive
NCC(O)c1ccc(O)cc1 (centres undefined),Potency,[1],"inconclusive [inhibitor, partial curve, poor fit]"
same,Potency,[2],inactive
COCCOCCO,Potency,[1],inactive
same,Potency,[2],"inconclusive [rising, partial curve, poor fit]"
same,Potency,[3],inactive
same,Potency,[4],inactive
Cc1cccc(C)c1NC1=NCCCS1,Potency,[1],"inconclusive [inhibitor, full curve]"
same,Potency,[2],inactive
c1ccc(N2CCNCC2)cc1,Potency,[1],inactive
same,Potency,[2],"inconclusive [rising, full curve, poor fit]"
COc1cc(CC(C)N)c(OC)cc1Br (centres undefined),Potency,[1],"inconclusive [inhibitor, full curve, poor fit]"
same,Potency,[2],active: 12.7 µM
same,Potency,[3],active: 11.3 µM
COC[C@@H](NC(C)=O)C(=O)NCc1ccccc1,Potency,[1],"inconclusive [inhibitor, partial curve, poor fit]"
same,Potency,[2],inactive
same,Potency,[3],"inconclusive [cytotoxic, partial curve, poor fit]"
same,Potency,[5],"inconclusive [cytotoxic, single point]"
same,Potency,[6],active: 18.7 µM
same,Potency,[7],"inconclusive [cytotoxic, single point]"
CC1(C)[C@H](C=C(Cl)Cl)[C@@H]1C(=O)OCc1c(F)c(F)cc(F)c1F,Potency,[1],"inconclusive [inhibitor, partial curve, poor fit]"
c1ccc(CN2CCNCC2)cc1,Potency,[1],"inconclusive [inhibitor, full curve]"
same,Potency,[2],"inconclusive [cytotoxic, single point]"
same,Potency,[3],"inconclusive [cytotoxic, single point]"
CCCCn1cc(C(=O)c2cccc3ccccc23)c2ccccc21,Potency,[1],inactive
same,Potency,[2],"inconclusive [cytotoxic, single point]"
COC1(C[S@@](=O)c2ccccc2)CCN(CCc2c[nH]c3ccc(F)cc23)CC1,Potency,[1],"inconclusive [inhibitor, partial curve, poor fit]"
same,Potency,[2],"inconclusive [cytotoxic, single point]"
CN1C(=O)C(Cc2ccc3ccccc3c2)N=C(c2ccc(O)cc2)c2cc(Cl)ccc21 (centres undefined),Potency,[1],inactive
same,Potency,[2],active: 20.6 µM
CCCN(CCC)[C@@H]1CCc2ccc3[nH]c(C#N)cc3c2C1,Potency,[1],"inconclusive [inhibitor, partial curve, poor fit]"
same,Potency,[2],"inconclusive [cytotoxic, single point]"
same,Potency,[3],"inconclusive [cytotoxic, single point]"
CCCN(CCC)CCc1c[nH]c2ccccc12,Potency,[1],"inconclusive [inhibitor, full curve]"
same,Potency,[2],"inconclusive [cytotoxic, partial curve, poor fit]"
same,Potency,[3],"inconclusive [cytotoxic, partial curve, poor fit]"
same,Potency,[8],"inconclusive [cytotoxic, partial curve]"
same,Potency,[4],"inconclusive [cytotoxic, partial curve]"
ClC1=C(Cl)[C@]2(Cl)[C@@H]3[C@@H]4C[C@@H]([C@H]5O[C@@H]45)[C@@H]3[C@@]1(Cl)C2(Cl)Cl,Potency,[1],"inconclusive [inhibitor, full curve]"
same,Potency,[2],"inconclusive [cytotoxic, partial curve]"
same,Potency,[3],active: 30.6 µM
same,Potency,[8],"inconclusive [cytotoxic, single point]"
same,Potency,[4],"inconclusive [cytotoxic, single point]"
NCCCCCNC1(c2ccccc2)CCCCC1,Potency,[1],inactive
same,Potency,[2],"inconclusive [cytotoxic, single point]"
same,Potency,[3],"inconclusive [cytotoxic, single point]"
CCCC(C)C1(CC)C(=O)NC(=O)NC1=O (centres undefined),Potency,[1],"inconclusive [inhibitor, single point]"
C[C@@H]1O[C@@H](O[C@H]2C[C@@H](O)[C@]3(CO)[C@H]4[C@H](O)C[C@]5(C)[C@@H](C6=CC(=O)OC6)CC[C@]5(O)[C@@H]4CC[C@]3(O)C2)[C@H](O)[C@H](O)[C@H]1O,Potency,[1],inactive
same,Potency,[2],active: 119 nM and active: 79.6 nM and active: 46.8 nM
